Results taken from PubChem BioAssay AID588579 (National Center for Advancing Translational Sciences (NCATS), 2011).
Where “and” joins values, the source holds several entries; their conditions need not be identical. Identical values can stand only once. The whole screen tested about 400,000 compounds, of which about 2,200 (0.55%) were called active. Inconclusive results, whose numbers are uncertain, are shown with a selection of clear calls. Calls come from the whole dose curve; as a rule, active = well fitted inhibition curve with a large enough effect; inconclusive = small, poorly fitted or top-dose-only effect, or another doubt; inactive = no such curve, though single readings can be large or run the other way. A potency beside an inconclusive call is a rough fit, not a confirmed value.

Molecular target: DNA polymerase kappa (Homo sapiens) (UniProt Q9UBT6)
Assay: qHTS for Inhibitors of Polymerase Kappa
Conditions: purified Pol kappa, fluorescent DNA synthesis assay, 10 min; series mostly up to 107 µM; activity, negative = inhibition: at the top concentration
Summary of the method: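 50 nM final substrate added after 15 min RT preincubation of 10 nM Pol kappa with compound; fluorescence read at 0 and 10 min.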
% is set by controls: 0 for no effect and ±100 for the full control effect; potency is the fitted concentration of half-maximal effect; tags give direction and shape of the fitted curve.

Chain of UniProt Q9UBT6 (Q9UBT6 whole entry, looked up): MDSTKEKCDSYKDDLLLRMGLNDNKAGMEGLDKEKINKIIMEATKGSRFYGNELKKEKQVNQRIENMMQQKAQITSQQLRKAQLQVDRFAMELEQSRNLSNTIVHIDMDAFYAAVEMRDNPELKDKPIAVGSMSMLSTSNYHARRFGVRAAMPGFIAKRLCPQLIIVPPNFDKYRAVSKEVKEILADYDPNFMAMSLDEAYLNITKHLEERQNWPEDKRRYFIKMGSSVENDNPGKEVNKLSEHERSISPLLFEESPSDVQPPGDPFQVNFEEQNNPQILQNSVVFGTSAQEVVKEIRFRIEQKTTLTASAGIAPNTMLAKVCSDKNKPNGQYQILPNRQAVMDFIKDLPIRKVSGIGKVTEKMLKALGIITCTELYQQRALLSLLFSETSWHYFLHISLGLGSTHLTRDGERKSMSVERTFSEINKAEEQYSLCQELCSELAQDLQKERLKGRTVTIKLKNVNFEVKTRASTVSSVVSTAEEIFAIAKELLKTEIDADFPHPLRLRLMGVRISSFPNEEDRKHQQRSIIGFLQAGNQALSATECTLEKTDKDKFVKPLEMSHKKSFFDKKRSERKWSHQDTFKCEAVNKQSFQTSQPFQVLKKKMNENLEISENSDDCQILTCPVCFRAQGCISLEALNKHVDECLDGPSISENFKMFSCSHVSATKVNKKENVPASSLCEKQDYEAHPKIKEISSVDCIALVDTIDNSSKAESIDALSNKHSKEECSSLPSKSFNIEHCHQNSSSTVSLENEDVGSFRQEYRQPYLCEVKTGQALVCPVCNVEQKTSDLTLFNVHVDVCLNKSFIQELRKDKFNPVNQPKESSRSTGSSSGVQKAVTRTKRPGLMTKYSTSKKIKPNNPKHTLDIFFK

| Compound | Potency | activity, negative = inhibition |
| --- | --- | --- |
| O=C(O)c1ccc(N=Nc2c(O)[nH]c3cc(Cl)ccc23)cc1 | inconclusive: 89.1 µM [inhibitor, single point] |  |
| Cc1ccccc1C(=O)Nc1cccc(NC(=O)c2ccc(C(C)(C)C)cc2)c1 | inconclusive: 89.1 µM [inhibitor, partial curve, poor fit] |  |
| c1cnc(N2CCN(c3ncc4c(n3)CCNC4)CC2)nc1 |  | inactive: -29.8% |
| O=Nc1c(O)ccc2cc(S(=O)(=O)O)ccc12 | inconclusive: 100 µM [inhibitor, single point] |  |
| O=C(NCC(c1cccs1)S(=O)(=O)c1cccs1)c1cccc(F)c1 (stereo unspecified) |  | inactive: -11% [at 60.1 µM] |
| COc1ccc(NC(=O)CN(c2ccccc2)S(=O)(=O)N(C)C)cc1OC | inconclusive: 39.8 µM [inhibitor, partial curve, poor fit] |  |
| COc1ccc(-c2cc(-c3ccco3)[nH]c(=O)c2C#N)cc1OC | active: 79.4 µM |  |
| CCC(=O)OC1(C)C(=O)C=C2C=C(c3ccsc3)OC=C2C1=O (stereo unspecified) | active: 50.1 µM |  |
| CCN(CC)c1ccc(C(=C2C=CC(=[N+](CC)Cc3cccc(S(=O)(=O)[O-])c3)C=C2)c2ccc(N(CC)Cc3cccc(S(=O)(=O)O)c3)cc2)cc1 | active: 4.23 µM |  |
| Cc1ccc(S(=O)(=O)N2Cc3ccccc3CC2C(=O)Nc2ccc3c(c2)OCO3)cc1 (stereo unspecified) | active: 50.1 µM |  |
| NCCCC[C@@H]1NC(=O)[C@H](CCC(=O)O)NC(=O)c2cc([N+](=O)[O-])cc(I)c2OCC[C@@H](C(N)=O)NC1=O | active: 25.1 µM |  |
| Oc1nc(Nc2ccc(Cl)cc2Cl)sc1/C=C1\C=Nc2ccccc21 |  | inactive: -26.2% |
| Cc1ccc(S(=O)(=O)N2[C@@H](c3cccc(Cl)c3)C(C(=O)O)=CC[C@H]2c2ccc(C(C)C)cc2)cc1 | inconclusive: 89.1 µM [inhibitor, partial curve] |  |
| CC(=O)Oc1ccc(-c2cc3c(OC(C)=O)cc(OC(C)=O)cc3oc2=O)cc1 | inconclusive: 79.4 µM [inhibitor, partial curve, poor fit] |  |
| COCCN(C(=O)c1cc2c(s1)CCC2)c1c(N)n(CC(C)C)c(=O)[nH]c1=O | active: 44.7 µM |  |
| COCCOC(=O)c1[nH]c2c(c1C)C(=O)CC(c1ccco1)C2 (stereo unspecified) | active: 22.4 µM |  |
| Nn1c(SCC(=O)NC(=O)NCc2ccco2)nnc1-c1ccc(OC(F)F)cc1 | inconclusive: 89.1 µM [inhibitor, partial curve, poor fit] |  |
| CCCNC(=O)COC(=O)c1c2c(nc3ccccc13)CCC2 | inconclusive: 89.1 µM [inhibitor, single point] |  |
| Cc1cc(C)c2c(c1)NC(C(=O)O)C1CC=CC21 (stereo unspecified) | active: 17.8 µM and active: 25.1 µM |  |
| Cc1ccc2oc(-c3ccccc3)cc(=O)c2c1 |  | inactive: -9.16% [at 19.4 µM] |
| N[C@@H](Cc1cc(I)c(Oc2ccc(O)c(I)c2)c(I)c1)C(=O)O | inconclusive: 56.2 µM [inhibitor, partial curve, poor fit] |  |

| Compound | Potency | activity, negative = inhibition |
| --- | --- | --- |
| Cn1nc(-c2ccc(C(=O)Nc3cccc(Cl)c3)cc2)c2ccccc2c1=O | inconclusive: 89.1 µM [inhibitor, single point] |  |
| COc1cc2[nH]c3c(=O)n(CCN(C(C)C)C(C)C)cnc3c2cc1OC | inconclusive: 79.4 µM [inhibitor, partial curve, poor fit] |  |
| O=C(/C=C/c1ccc(-c2ccccc2)cc1)NCc1cccnc1 |  | inactive: -2.15% |
| O=C(O)/C=C/C(=O)Nc1ccc(O)cc1 | inconclusive: 89.1 µM [inhibitor, single point] |  |
| CCCn1nnc(NC(=S)NC(=O)/C=C/c2ccco2)n1 | active: 50.1 µM |  |
| COc1cc2c(NC3CCN(C)CC3)nc(N3CCCN(C)CC3)nc2cc1OCCCCCN | inconclusive: 79.4 µM [inhibitor, partial curve, poor fit] |  |
| COc1ccccc1C(CNC(=O)c1ccc(NS(=O)(=O)c2ccc(C(C)=O)cc2)cc1)N1CCCC1 (stereo unspecified) | inconclusive: 79.4 µM [inhibitor, single point] |  |
| Cc1ccc(Cn2c(C)c3cnn(CC(=O)NCc4ccccc4)c(=O)c3c2C)cc1 | inconclusive: 89.1 µM [inhibitor, single point] |  |
| O=C(O)COc1ccccc1/C=N/Nc1ccc(S(=O)(=O)Nc2ccc(Cl)cc2)cc1[N+](=O)[O-] | inconclusive: 89.1 µM [inhibitor, single point] |  |
| O=C(CCS(=O)(=O)c1ccc(Br)cc1)Nc1ccc(F)cc1F |  | inactive: -9.72% [at 60.1 µM] |
| COc1cc(/C=C/C(=O)O)cc(S(=O)(=O)NCc2ccc3c(c2)OCO3)c1OC | inconclusive: 100 µM [inhibitor, partial curve, poor fit] |  |
| Cc1ccc(CN2CCN(Cc3cnn(-c4ccc(F)cc4)c3)CC2CCO)o1 (stereo unspecified) | inconclusive: 89.1 µM [inhibitor, partial curve, poor fit] |  |
| COc1cc(OC)c(NC(=O)c2ccc3c(SCC(=O)O)c4c(nc3c2)CCCC4)cc1Cl | inconclusive: 89.1 µM [inhibitor, single point] |  |
| CN=C1SC(CC(=O)NCCc2ccc(OC)c(OC)c2)C(=O)N1C (stereo unspecified) | inconclusive: 100 µM [inhibitor, single point] |  |
| O=C(O)c1ccc(N/N=C/C=C/c2ccc([N+](=O)[O-])o2)cc1 | active: 79.4 µM |  |
| COc1ccc(-n2c(C)cc(C(=O)COc3ccc(C)nc3[N+](=O)[O-])c2C)cc1 | inconclusive: 89.1 µM [inhibitor, single point] |  |
| COc1cc(C(=O)N2CCN(c3cccc(C(F)(F)F)c3)CC2)ccc1OCC(=O)N1CCOCC1 |  | inactive: -8.74% |
| COc1cccc(Nc2ncc3nc(-c4cc(F)cc(F)c4)c(=O)n(C4CC4)c3n2)c1 |  | inactive: -13.1% [at 60.1 µM] |
| CCOc1cc(/C=N/N=C2/NC(=O)C(CC(=O)O)S2)ccc1OCc1ccc(Cl)cc1Cl (stereo unspecified) | inconclusive: 56.2 µM [inhibitor, partial curve, poor fit] |  |
| CC(=O)Oc1ccc2c(c1OC(C)=O)OCC1(O)Cc3c(cc(OC(C)=O)c(OC(C)=O)c3OC(C)=O)C21 (stereo unspecified) | inconclusive: 39.8 µM [inhibitor, single point] |  |
